Some of the results follow. Most values come without repeats; read them as rough.
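Further: cells treated in 1,536-well plates, then fixed and DAPI-stained, with nuclei counted from automated high-throughput microscope images.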

The assay relates to A375. The assay can be described thus: cell count relative to DMSO control; melanoma cells; higher = more viable cells. The following applies: library dose: standard library concentration; 72 h.
Turning to `CN(c1ncccc1CNc1nc(Nc2ccc3c(c2)CC(=O)N3)ncc1C(F)(F)F)S(C)(=O)=O` + O=C1NC(=O)/C(=C/c2ccc(-c3ccc(F)cc3O)o2)S1 [AS252424] (first compound 0.4 µM, partner dose 5 µM), the cell count stood at 80.1%.
Turning to `C=C(c1ccc(C(=O)O)cc1)c1cc2c(cc1C)C(C)(C)CCC2(C)C` [Bexarotene] + CCN(CC)CCCCNc1ncc2cc(-c3cc(OC)cc(OC)c3)c(NC(=O)NC(C)(C)C)nc2n1 [PD173074] (first compound 10 µM, partner dose 0.5 µM), the cell count was 105%.
Regarding `NC1(c2ccc(-c3nc4ccn5c(=O)[nH]nc5c4cc3-c3ccccc3)cc2)CCC1` + CC(C)CCN1c2nc(Nc3cc(F)c(O)c(F)c3)ncc2N(C)C(=O)C1C [BID1870] (first compound 2 µM, partner dose 1 µM), the cell count was determined as 98%.
`C=C(c1ccc(C(=O)O)cc1)c1cc2c(cc1C)C(C)(C)CCC2(C)C` [Bexarotene] + Cn1c(Nc2ccc(C(F)(F)F)cc2)nc2cc(Oc3ccnc(-c4ncc(C(F)(F)F)[nH]4)c3)ccc21 [CHIR265] (first compound 10 µM, partner dose 0.4 µM) returned a cell count of 89.8%.
The figure for `C=C(c1ccc(C(=O)O)cc1)c1cc2c(cc1C)C(C)(C)CCC2(C)C` [Bexarotene] + O=S(=O)(c1ccccc1)N(CC(F)(F)F)c1ccc(C(O)(C(F)(F)F)C(F)(F)F)cc1 [T0901317] (first compound 10 µM, partner dose 7 µM) is 96.1%; for `CS(=O)(=O)c1ccc(C(=O)Nc2ccc(Cl)c(-c3ccccn3)c2)c(Cl)c1` [vismodegib] + O=C(Nc1ccccc1)c1cc([N+](=O)[O-])ccc1Cl [GW9662] (first compound 5 µM, partner dose 10 µM) it is 153%; for `C=C(c1ccc(C(=O)O)cc1)c1cc2c(cc1C)C(C)(C)CCC2(C)C` [Bexarotene] + CC(C)(C)c1cnc(CSc2cnc(NC(=O)C3CCNCC3)s2)o1 [SNS-032] (first compound 10 µM, partner dose 0.05 µM) it is 82.9%.
The figure for `C=C(c1ccc(C(=O)O)cc1)c1cc2c(cc1C)C(C)(C)CCC2(C)C` [Bexarotene] + CC(C)CCN1c2nc(Nc3cc(F)c(O)c(F)c3)ncc2N(C)C(=O)C1C [BID1870] (first compound 10 µM, partner dose 1 µM) is 97.9%; for `NC1(c2ccc(-c3nc4ccn5c(=O)[nH]nc5c4cc3-c3ccccc3)cc2)CCC1` + COc1ccc(COc2ccc(Cc3cnc(N)nc3N)cc2OC)cc1 [GW2580] (first compound 2 µM, partner dose 5 µM) it is 91.9%; for `CS(=O)(=O)c1ccc(C(=O)Nc2ccc(Cl)c(-c3ccccn3)c2)c(Cl)c1` [vismodegib] + O=C(O)[C@@H]1[O][Sb](=[O])([O][Sb]2(=[O])[O][C@H]([C@H](O)CO)[C@H](O)[C@H](C(=O)O)[O]2)[O][C@H]([C@H](O)CO)[C@@H]1O [stibogluconate] (first compound 5 µM, partner dose 10 µM) it is 118%.
With `CS(=O)(=O)c1ccc(C(=O)Nc2ccc(Cl)c(-c3ccccn3)c2)c(Cl)c1` [vismodegib] + Oc1nc(-c2ccc(C(F)(F)F)cc2)nc2c1CSCC2 [XAV939] (first compound 5 µM, partner dose 10 µM) the figure was 95.4%; with `CCCS(=O)(=O)Nc1ccc(F)c(C(=O)c2c[nH]c3ncc(Cl)cc23)c1F` + CC(C)(C)c1cnc(CSc2cnc(NC(=O)C3CCNCC3)s2)o1 [SNS-032] (first compound 0.4 µM, partner dose 0.05 µM), 78.5%.
For `CN(c1ncccc1CNc1nc(Nc2ccc3c(c2)CC(=O)N3)ncc1C(F)(F)F)S(C)(=O)=O` + Cn1c(=O)n(-c2ccc(C(C)(C)C#N)cc2)c2c3cc(-c4cnc5ccccc5c4)ccc3ncc21 [NVP-BEZ235] (first compound 0.4 µM, partner dose 0.02 µM), the cell count was 62.7%.
Take `NC1(c2ccc(-c3nc4ccn5c(=O)[nH]nc5c4cc3-c3ccccc3)cc2)CCC1` + NC(=O)Nc1cc(-c2cccc(F)c2)sc1C(=O)N[C@H]1CCCNC1 [AZD7762] (first compound 2 µM, partner dose 0.1 µM): the cell count worked out at 56.6%.

Source of the values: the supplement of paper PMC4604168 (melanoma cell lines).
